Source: paper PMC10017685 (Nature Communications, 2023)
Read-outs that look alike come from different tables or passages of the source. Peptide text beside a SMILES is read from it.

What was measured:
[1] = tested on: S. aureus ATCC 33591; type: cell-based, Staphylococcus aureus
Procedure: (§1) Fresh cultures were used in antimicrobial assay. […] Moreover MBC was evaluated. […] All experiments were conducted in triplicate.

[2] = tested on: Sheep red blood cells; experiment: Hemolysis assay (HC50); type: cell-based; conditions: for HC50 (µM/ml): sheep erythrocytes, recalculated from μg/mL values, estimated as in https://pubmed.ncbi.nlm.nih.gov/29307075/; for HC50: sheep red blood cells 4% (v/v) in PBS, peptides 1-[…], 60 min at 37 °C, hemoglobin release at 590 nm, 1% Triton-X 100 = 100% hemolysis, triplicate, HC50 by ic50.tk
Procedure: The hemolysis assay was conducted according to the procedure described previously. Sheep red blood cells (Defibrillated Sheep Blood, Graso, Poland) were used. […] Then the solution of RBCs was added to each well (100 μL with a 4% concentration of erythrocytes (v/v). The control wells for 0 and 100% hemolysis were also prepared: RBCs suspended in PBS and 1% of Triton-X 100, respectively. After that the plates were incubated for 60 min at 37 °C and then centrifuged at 800 × g for 10 min at 4 °C (Sorvall ST 16R Centrifuge, Thermo Scientific). The supernatant was carefully […] to new microtiter plates and the release of hemoglobin was measured at 590 nm (Multiskan™ GO Microplate Spectrophotometer, Thermo Scientific). Hemolysis for each concentration was calculated as the percentage of control with 100% hemolysis. All experiments were conducted in triplicate. The final values of HC50 were computed using ic50.tk tool.

[3] = tested on: E. coli ATCC 25922; type: cell-based, Escherichia coli
Procedure: as §1

[4] = tested on: P. aeruginosa ATCC 9027; type: cell-based, Pseudomonas aeruginosa; conditions: for P. aeruginosa ATCC 9027 MIC: second experimental round, broth microdilution (CLSI), Mueller-Hinton Broth, 0.5 × 10^5 CFU/mL, 1-[…], 18 h at 37 °C
Procedure: as §1

[5] = tested on: E. coli ATCC 43827; type: cell-based, Escherichia coli
[6] = tested on: A. baumannii ATCC BAA 1605; type: cell-based, Acinetobacter baumannii; conditions: for A. baumannii ATCC BAA 1605 MIC: second experimental round, broth microdilution (CLSI), Mueller-Hinton Broth, 0.5 × 10^5 CFU/mL, 1-[…], 18 h at 37 °C
Procedure: as §1

[7] = second experimental round, broth microdilution (CLSI), Mueller-Hinton Broth, 0.5 × 10^5 CFU/mL, 1-[…], 18 h at 37 °C, triplicate
[8] = second round, MIC well and two higher concentrations seeded on agar plates, no visible colonies, triplicate

SMILES	S. aureus ATCC 33591 MIC [1, 7] [µg/mL]	S. aureus ATCC 33591 MBC [1, 8] [µg/mL]	HC50 (µM/ml) [2] [µM/ml]	HC50 [2] [µg/mL]	E. coli ATCC 25922 MIC [3, 7] [µg/mL]	E. coli ATCC 25922 MBC [3, 8] [µg/mL]	P. aeruginosa ATCC 9027 MIC ([4]; triplicate) [µg/mL]	P. aeruginosa ATCC 9027 MBC [4, 8] [µg/mL]	E. coli ATCC 43827 MIC [5, 7] [µg/mL]	E. coli ATCC 43827 MBC [5, 8] [µg/mL]	A. baumannii ATCC BAA 1605 MIC ([6]; triplicate) [µg/mL]	A. baumannii ATCC BAA 1605 MBC [6, 8] [µg/mL]	S. aureus ATCC 33591 MBC ([1]; ATCC 33591, 24 h) [µg/mL]	E. coli ATCC 25922 MBC ([3]; ATCC 25922, 24 h) [µg/mL]	P. aeruginosa ATCC 9027 MBC ([4]; ATCC 9027, 24 h) [µg/mL]	E. coli ATCC 43827 MBC ([5]; ATCC 43827, 24 h) [µg/mL]	A. baumannii ATCC BAA 1605 MBC ([6]; ATCC BAA 1605, 24 h) [µg/mL]	further results
CC[C@H](C)[C@H](N)C(=O)NCC(=O)N[C@@H](CCCCN)C(=O)N[C@@H](CC(C)C)C(=O)N[C@@H](Cc1ccccc1)C(=O)N[C@@H](CCCCN)C(=O)N[C@@H](CCCNC(=N)N)C(=O)N[C@H](C(=O)N[C@@H](Cc1c[nH]cn1)C(=O)N[C@@H](CCC(=O)O)C(=O)N[C@@H](CCCNC(=N)N)C(=O)N[C@H](C(=O)N[C@@H](CCCCN)C(=O)N[C@@H](CCCNC(=N)N)C(=O)N[C@@H](Cc1ccccc1)C(=O)N[C@@H](CC(C)C)C(=O)N[C@@H](CCCNC(=N)N)C(=O)N[C@@H](CO)C(=O)N[C@@H](Cc1ccccc1)C(=O)N[C@@H](CC(C)C)C(=O)N[C@@H](CCCNC(=N)N)C(=O)N[C@H](C(=O)N[C@@H](CC(C)C)C(=O)N[C@@H](CCCNC(=N)N)C(N)=O)[C@@H](C)CC)[C@@H](C)CC)[C@@H](C)CC [OP-145-TII5]	64	64	>118	>512	64	64	128	128	64	64	64	64	–	–	–	–	–	S. aureus ATCC 33591 MBC [1]: 64 µg/mL; E. coli ATCC 25922 MBC [3]: 64 µg/mL; E. coli ATCC 25922 MIC [3]: 64 µg/mL; E. coli ATCC 43827 MBC [5]: 64 µg/mL; E. coli ATCC 43827 MIC [5]: 64 µg/mL
CC[C@H](C)[C@H](NC(=O)[C@H](CCCCN)NC(=O)[C@H](CCCCN)NC(=O)[C@@H](NC(=O)[C@@H](NC(=O)[C@H](CCCCN)NC(=O)[C@@H](NC(=O)[C@H](C)NC(=O)[C@@H](NC(=O)[C@H](Cc1c[nH]cn1)NC(=O)CNC(=O)[C@H](C)NC(=O)[C@H](CC(C)C)NC(=O)[C@H](CC(=O)O)NC(=O)[C@H](CCCCN)NC(=O)[C@H](C)NC(=O)[C@H](C)NC(=O)CNC(=O)[C@H](CCCCN)NC(=O)[C@H](CC(C)C)NC(=O)[C@@H](NC(=O)[C@H](CCC(=O)O)NC(=O)[C@H](CC(C)C)NC(=O)[C@@H](NC(=O)CN)C(C)C)[C@@H](C)CC)C(C)C)[C@@H](C)O)C(C)C)[C@@H](C)CC)C(N)=O [Syphaxin-TII6]	>512	>512	152	>512	256	512	>512	>512	512	512	64	64	–	–	–	–	–	–
CC[C@H](C)[C@H](NC(=O)[C@H](Cc1ccccc1)NC(=O)[C@H](CCCCN)NC(=O)[C@H](CC(N)=O)NC(=O)[C@H](CC(C)C)NC(=O)[C@H](CCC(N)=O)NC(=O)CN)C(=O)N[C@@H](CCCCN)C(=O)N[C@@H](CCCCN)C(=O)N[C@@H](C)C(=O)N[C@@H](CCC(N)=O)C(=O)N[C@@H](CCCNC(=N)N)C(=O)N[C@@H](CCCCN)C(=O)N[C@@H](Cc1ccccc1)C(=O)N[C@@H](Cc1c[nH]cn1)C(=O)N[C@@H](CCC(=O)O)C(=O)N[C@@H](CCCCN)C(=O)N[C@@H](Cc1ccccc1)C(=O)N[C@@H](C)C(=O)N[C@@H](CCCCN)C(N)=O [GQ20, reference compound] (H-GQLNKFIKKAQRKFHEKFAK-NH2)	–	–	–	–	–	–	–	–	–	–	–	–	>512	>512	>512	>512	512	–
CC[C@H](C)[C@H](N)C(=O)N[C@@H](CC(C)C)C(=O)N[C@@H](CCCNC(=N)N)C(=O)N[C@@H](Cc1c[nH]c2ccccc12)C(=O)N1CCC[C@H]1C(=O)N[C@@H](Cc1c[nH]c2ccccc12)C(=O)N[C@@H](Cc1c[nH]c2ccccc12)C(=O)N1CCC[C@H]1C(=O)N[C@@H](Cc1c[nH]c2ccccc12)C(=O)N[C@@H](CCCNC(=N)N)C(=O)N[C@@H](CCCNC(=N)N)C(=O)N[C@@H](CCCCN)C(N)=O [Omiganan, reference compound] (H-ILRWPWWPWRRK-NH2)	–	–	–	–	–	–	–	–	–	–	–	–	64	64	256	32	128	S. aureus ATCC 33591 MIC ([1]; ATCC 33591, 24 h): 64 µg/mL; E. coli ATCC 25922 MIC ([3]; ATCC 25922, 24 h): 32 µg/mL; E. coli ATCC 43827 MIC ([5]; ATCC 43827, 24 h): 32 µg/mL
